B1: CPEB3 Ribozyme (parent)
chain: UAACAGGGGGCCACAGCAGAAGCGUUCACGUCGCAGCCCCUGUCAGAUUCUGGUGAAUCUGCGAAUUCUGCUGUAUAUCUC

The source gives no read counts; variants with many changes may rest on few reads.

In this data set the parent is B1. In words: self-cleavage, relative activity (ratio to wild type); higher = more cleavage; in vitro, sequencing. The gist of the method:
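After error-prone PCR and barcoding, CPEB3 ribozyme mutant libraries were transcribed with T7 RNA polymerase at 37°C for 5 hours, then given 15 min with DNase I before an EDTA stop, and they cleaved during both steps. Reverse transcription with template switching preceded Illumina sequencing. Relative activity divides a variant's cleaved/total read fraction by the unmutated ribozyme's. At least 5 reads were required per variant, and three batches were averaged.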
On to UAACAGGGGGCCACAGCAGAAGCGCGCACGUCGCAGCCCCUGACAGAUUCUGGUGAAUCAGCGAAUUCUGCUGUAUAUCUC [U25C U26G U43A U60A], for which the self-cleavage came to 0.09. Under UAACAGGGGGCCACAGCAGAAGCGCCCACGUCGCAGCCCCUGUCGGAUUCUGGUGAAUCCGCGAAUCCUGCUGUAUAUCUC [U25C U26C A45G U60C U67C] stands 0.04; under UAACAGGGGGCCACAGCAGAAGCGCGCACGUCGCAGCCCCUGUCAGAUUCUGGUGAAUCUGCGAAUUCUGCAGUGUAUCUC [U25C U26G U72A A75G], 0.44; under UAACAGGGGGCCACAGCAGAAGCGCCCACGUCGCAGCCCCUGUCAGAUUCUGGUGAAUCCGCGAAUUCUGCCGUAUAUCCC [U25C U26C U60C U72C U80C], 0.1.

In the case of UAACAGGGGGCCACAGCAGAAGCGCUCACGGCGCAGCCCCUGUCAGAUUCUGGUGAAUCUGCGAAUUCUGCUGUAUACCUC [U25C U31G U78C], the self-cleavage amounted to 0.17. Under UAACAGGGGGCCACAGCAGAAGCGCCCACGUCGCAGCCCCUGUCAGAUUCUGGUGAAUCUGCGAAUUCUGCUGAAUAUCUC [U25C U26C U74A] stands 0.26; under UAACAGGGGGCCACAGCAGAAGCGCCCACGUCGCAGCCCCUGUCAGAUUCUGGUGAAUCUGCGAAUUCUGCUGUAUACCUC [U25C U26C U78C], 0.27; under UAACAGGGGGCCACAGCAGAAGCGCUCACGCCGCAGCCCCCGUCAGAUUCUGGUGAAUCCGCGAAUUCUGCUGUAUAUCUC [U25C U31C U41C U60C], 0.15. As to UAACAGGGGGCCACAGCAGAAGCGCUCACGACGCAGCCCCUGUCAGAUUCUGGUGAAUCUGCGAAUUCCGCUGUAUAUCUC [U25C U31A U69C], the self-cleavage turned out to be 0.13. Under UAACAGGGGGCCACAGCAGAAGCGCUCACGACGCAGCCCCUGUCCGAUUCUGGUGAAUCUGCGAAUUCUGCUGUAUAUCUC [U25C U31A A45C] stands 0.11. With UAACAGGGGGCCACAGCAGAAGCGCUCACGGCGCAGCCCCUGCCAGAUUCUGGUGAAUCUGCGAAGUCUGCUGUAUAUCUC [U25C U31G U43C U66G] the figure was 0.07; with UAACAGGGGGCCACAGCAGAAGCGCCCACGUCGCAGCCCCUGUCAGAUUCUGGUGAAUCUCCGGAUUCUGCUGUAUAUCUC [U25C U26C G61C A64G], 0.19.

As to UAACAGGGGGCCACAGCAGAAGCGCCCACGUCGCCGCCCCUGUCAGAUACUGGUGAAUCUGCGAAUUCUGCCGUAUAUCAC [U25C U26C A35C U49A U72C U80A], the self-cleavage worked out at 0.1.

Regarding UAACAGGGGGCCACAGCAGAAGCGCUCACGACGCAGCCCCUGUCAGAUUCUGGUGGAUCUGCGAAUUCUGCUGAAUAUCUC [U25C U31A A56G U74A], the self-cleavage is 0.1.

With UAACAGGGGGCCACAGCAGAAGCGCCCACGUCGCAGCCCUUGCCUGAUUCUGGUGAAUCUGCGAAUUCUGCUGUAUAUCUC [U25C U26C C40U U43C A45U], the self-cleavage amounted to 0.09. Under UAACAGGGGGCCACAGCAGAAGCGCUCACGACGCAGCCCCUGUCAGACUCUGGUGAAUCUGCGAAUUCUGCUGCUUAUCCC [U25C U31A U48C U74C A75U U80C] stands 0.13; under UAACAGGGGGCCACAGCAGAAGCGCUCACGGCGCAGCCCCUGUCAGAUGCUGGUGGAUCUGCGAAUUCUGCUGUAUAUCUC [U25C U31G U49G A56G], 0.1; under UAACAGGGGGCCACAGCAGAAGCGCGCACGACGCAGCCCCUGUCAGAUUCUGGUGAAUCUGCGAAUUCUGCUGUAUAUCUC [U25C U26G U31A], 0.28. Under UAACAGGGGGCCACAGCAGAAGCGCUCACGGCGCGGCCCCUGUCAGAUUCUGGUGGAUCUGCGAAUUCCGCUGUGUACCUC [U25C U31G A35G A56G U69C A75G U78C] stands 0.

For UAACAGGGGGCCACAGCAGAAGCGCCCACGUCGCAGCCCCUGUCACAUUCUGGUGAAUCUGCGCAUUCUGCUGUAUAUCUC [U25C U26C G46C A64C], the self-cleavage is 0.15. Regarding UAACAGGGGGCCACAGCAGAAGCGCUCACGUCGCAGCCCCAGUCAGAUUCUGGUGAAUCUGCGAAUUCCGCUGUAUAUCUC [U25C U41A U69C], the self-cleavage was 0.22. Under UAACAGGGGGCCACAGCAGAAGCGCCCACGUCGCAGCCCCUGUCAGAUUCUGGUGAGUCUGCGAAUUCUGCUGUAUUUCUC [U25C U26C A57G A77U] stands 0.25; under UAACAGGGGGCCACAGCAGAAGCGCUCACGUCGCAGCCCCAGUCAGGUUCAGGUGAGUCUGCGAAUUCUGCUGUAUAUCUC [U25C U41A A47G U51A A57G], 0.12. Under UAACAGGGGGCCACAGCAGAAGCGCCCACGACGCAGCCCCUGUCAGGCUCUGUUGAAUCGGCGAAUUCUGCUGUAUAUCUC [U25C U26C U31A A47G U48C G53U U60G] stands 0.08; under UAACAGGGGGCCACAGCAGAAGCGCUCACGCCGCAUCCCCUGUCAGAUUCUGGUGGAUCUGCGAAUUCUGCUGUAUAUCUC [U25C U31C G36U A56G], 0.1.

For the variant UAACAGGGGGCCACAGCAGAAGCGCUCACGCCGCAGCCCCUGUCAGAUUCUGGCGAAUCUGCGAAUUCUGCAGUAUAUCUC [U25C U31C U54C U72A], the self-cleavage was 0.05. Regarding UAACAGGGGGCCACAGCAGAAGCGCUCACGGCGCGGCCCCUGUCGGAUUCUGGUGAAUCUGCGAAUCCUGCUGUAUAUCUC [U25C U31G A35G A45G U67C], the self-cleavage was 0.01. With UAACAGGGGGCCACAGCAGAAGCGCCCACGUCGCAGCCCCUGUCAGAUCCUGGUGAAUCUGCGAAUUCUGCUGAAUAUCUC [U25C U26C U49C U74A] the figure was 0.32; with UAACAGGGGGCCACAGCAGAAGCGCUCACGCCGCAGCCCCUGUCAGGUUCUGGUGAGUCAGCGAAUUCUGCUGUAUAUCUC [U25C U31C A47G A57G U60A], 0.05. With UAACAGGGGGCCACAGCAGAAGCGCUCACGACGCAGCCCCUGUCAGAUUCUAGUGAAUCCGCGAAUUCUGCUGUAUAUCUC [U25C U31A G52A U60C] the figure was 0.15.

Consider UAACAGGGGGCCACAGCAGAAGCGCUCACGCCGCAGCCCCUGUCAGAUUCUGGCGAAUCUGCGAAUACUGCUGUAUAUCUC [U25C U31C U54C U67A], for which the self-cleavage came to 0.05. With UAACAGGGGGCCACAGCAGAAGCGCCCACGGCGCAGCCCCUGUCAGAUUCUGGUGAAUCUGCGAAUUCUGCUGUAUAUCUC [U25C U26C U31G] the figure was 0.13. For the variant UAACAGGGGGCCACAGCAGAAGCGCUCACGUCGCAGCCCCAGUCAGAUUCUGGCGAAUCUGCGAAUUCUGCUGUAUAUCUC [U25C U41A U54C], the self-cleavage worked out at 0.23. With UAACAGGGGGCCACAGCAGAAGCGCCCACGUCGCAGCCCCUGUCAGAUCCUGGUGAAUCUGCGAAUUCUGCUGUAUAUCUC [U25C U26C U49C] the figure was 0.33.

The record behind these values is the RNAGym collection of RNA variant scans (doi:10.1093/nar/gkz1192).
